Laboratory results reported in the supplement of paper PMC4967469.
Lines with a small IC50 respond at low doses; a limit (>, <) means that the fit lies beyond the doses tested. For AUC the same curve is integrated over the 256-fold range of doses and scaled to a fraction; the more sensitive the line, the further below 1. An inferred top dose comes from the curve model; the source does not state it.

Assays:
Experiment in all cases: Viability of human cancer cell lines after 72 h of drug (GDSC screen)
[1] = compound: COc1cc(C)c(Sc2cnc(NC(=O)c3ccc(CNC(C)C(C)(C)C)cc3)s2)cc1C(=O)N1CCN(C(C)=O)CC1 [BMS-509744]; details: top dose 10.24 µM; top dose inferred
Experimental: (§1)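 Human cancer cell lines in 384-well plates, medium with 10% serum, drug for 72 h over a 256-fold dose range (nine 2-fold or five 4-fold steps up to the top dose). Adherent lines were fixed and stained with the nucleic acid dye Syto60, suspension lines read with resazurin; signal relative to control wells, capped at 0 and 100%. One two-parameter sigmoid per drug and line, fitted in a mixed model over all curves with the slope shared within a line.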

[2] = compound: COc1ccccc1S(=O)(=O)Nc1ccc2c(c1)CN(C)C(=O)N2 [PFI-1]; details: top dose 10 µM; top dose inferred
Experimental: as §1

[3] = compound: CCc1cc(Nc2nccc(-c3c(-c4ccc(OC)c(C(=O)Nc5c(F)cccc5F)c4)nc4ccccn34)n2)c(OC)cc1N1CCC(N2CCN(S(C)(=O)=O)CC2)CC1 [GSK-1904529A]; details: top dose 1.024 µM; top dose inferred
Experimental: as §1

[4] = compound: CCN1CCN(Cc2ccc(NC(=O)c3ccc(C)c(Oc4ccnc5[nH]ccc45)c3)cc2C(F)(F)F)CC1 [NG-25]; details: top dose 10.24 µM; top dose inferred
Experimental: as §1

[5] = compound: Cn1cncc1[C@@](N)(c1ccc(Cl)cc1)c1ccc2c(c1)c(-c1cccc(Cl)c1)cc(=O)n2C [Tipifarnib]; details: top dose 16 µM; top dose inferred
Experimental: as §1

AM-38 (glioma, semi-adherent)
AUC [1]: 0.976
IC50 [1]: > 10.2 µM
AUC [2]: 0.987
IC50 [2]: > 10 µM
AUC [3]: 0.988
IC50 [3]: > 1.02 µM
AUC [4]: 0.731
IC50 [4]: 2.96 µM
AUC [5]: 0.848
IC50 [5]: 12.3 µM

AMO-1 (haematopoietic neoplasm, suspension)
AUC [1]: 0.931
IC50 [1]: > 10.2 µM
AUC [2]: 0.761
IC50 [2]: 3.09 µM
AUC [3]: 0.985
IC50 [3]: > 1.02 µM
AUC [4]: 0.761
IC50 [4]: 3.16 µM
AUC [5]: 0.785
IC50 [5]: 5.85 µM

ARH-77 (myeloma, suspension)
AUC [1]: 0.972
IC50 [1]: > 10.2 µM
AUC [2]: 0.848
IC50 [2]: 7.01 µM
AUC [3]: 0.988
IC50 [3]: > 1.02 µM
AUC [4]: 0.68
IC50 [4]: 1.99 µM
AUC [5]: 0.941
IC50 [5]: > 16 µM

ATN-1 (T-cell lymphoblastic leukaemia, suspension)
AUC [1]: 0.817
IC50 [1]: 5.25 µM
AUC [2]: 0.915
IC50 [2]: > 10 µM
AUC [3]: 0.985
IC50 [3]: > 1.02 µM
AUC [4]: 0.878
IC50 [4]: 9.25 µM
AUC [5]: 0.652
IC50 [5]: 2.56 µM

BB49-HNC (head and neck, adherent)
AUC [1]: 0.935
IC50 [1]: > 10.2 µM
AUC [2]: 0.789
IC50 [2]: 6.58 µM
AUC [3]: 0.902
IC50 [3]: > 1.02 µM
AUC [4]: 0.883
IC50 [4]: > 10.2 µM
AUC [5]: 0.68
IC50 [5]: 3.93 µM

BB65-RCC (kidney, adherent)
AUC [1]: 0.932
IC50 [1]: > 10.2 µM
AUC [2]: 0.899
IC50 [2]: > 10 µM
AUC [3]: 0.975
IC50 [3]: > 1.02 µM
AUC [4]: 0.869
IC50 [4]: > 10.2 µM
AUC [5]: 0.606
IC50 [5]: 2.05 µM

BC-1 (B-cell lymphoma, suspension)
AUC [1]: 0.902
IC50 [1]: 9.86 µM
AUC [2]: 0.649
IC50 [2]: 1.51 µM
AUC [3]: 0.977
IC50 [3]: > 1.02 µM
AUC [4]: 0.803
IC50 [4]: 4.21 µM
AUC [5]: 0.238
IC50 [5]: 0.202 µM

BE2-M17 (neuroblastoma, adherent)
AUC [1]: 0.933
IC50 [1]: > 10.2 µM
AUC [2]: 0.84
IC50 [2]: 7.15 µM
AUC [3]: 0.986
IC50 [3]: > 1.02 µM
AUC [4]: 0.935
IC50 [4]: > 10.2 µM
AUC [5]: 0.938
IC50 [5]: > 16 µM

BE-13 (lymphoblastic leukaemia, suspension)
AUC [1]: 0.825
IC50 [1]: 5.62 µM
AUC [2]: 0.902
IC50 [2]: > 10 µM
AUC [3]: 0.982
IC50 [3]: > 1.02 µM
AUC [4]: 0.36
IC50 [4]: 0.27 µM
AUC [5]: 0.68
IC50 [5]: 3.07 µM

BL-41 (Burkitt lymphoma, suspension)
AUC [1]: 0.848
IC50 [1]: 5.05 µM
AUC [2]: 0.751
IC50 [2]: 2.63 µM
AUC [3]: 0.989
IC50 [3]: > 1.02 µM
AUC [4]: 0.628
IC50 [4]: 1.32 µM
AUC [5]: 0.62
IC50 [5]: 1.96 µM

BT-474 (breast, adherent)
AUC [1]: 0.981
IC50 [1]: > 10.2 µM
AUC [2]: 0.908
IC50 [2]: > 10 µM
AUC [3]: 0.966
IC50 [3]: > 1.02 µM
AUC [4]: 0.897
IC50 [4]: > 10.2 µM
AUC [5]: 0.884
IC50 [5]: > 16 µM

BV-173 (chronic myeloid leukaemia, suspension)
AUC [1]: 0.891
IC50 [1]: 9.5 µM
AUC [2]: 0.771
IC50 [2]: 3.39 µM
AUC [3]: 0.989
IC50 [3]: > 1.02 µM
AUC [4]: 0.043
IC50 [4]: < 0.04 µM
AUC [5]: 0.676
IC50 [5]: 2.89 µM

Becker (glioma, adherent)
AUC [1]: 0.958
IC50 [1]: > 10.2 µM
AUC [2]: 0.85
IC50 [2]: 9.05 µM
AUC [3]: 0.979
IC50 [3]: > 1.02 µM
AUC [4]: 0.939
IC50 [4]: > 10.2 µM
AUC [5]: 0.755
IC50 [5]: 6.06 µM

C2BBe1 (large intestine, adherent)
AUC [1]: 0.958
IC50 [1]: > 10.2 µM
AUC [2]: 0.928
IC50 [2]: > 10 µM
AUC [3]: 0.986
IC50 [3]: > 1.02 µM
AUC [4]: 0.961
IC50 [4]: > 10.2 µM
AUC [5]: 0.892
IC50 [5]: > 16 µM

CA46 (Burkitt lymphoma, suspension)
AUC [1]: 0.878
IC50 [1]: > 10.2 µM
AUC [2]: 0.719
IC50 [2]: 2.75 µM
AUC [3]: 0.98
IC50 [3]: > 1.02 µM
AUC [4]: 0.475
IC50 [4]: 0.544 µM
AUC [5]: 0.621
IC50 [5]: 2.21 µM

CAS-1 (glioma, adherent)
AUC [1]: 0.96
IC50 [1]: > 10.2 µM
AUC [2]: 0.87
IC50 [2]: > 10 µM
AUC [3]: 0.978
IC50 [3]: > 1.02 µM
AUC [4]: 0.864
IC50 [4]: > 10.2 µM
AUC [5]: 0.798
IC50 [5]: 11.1 µM

CCRF-CEM (lymphoblastic leukaemia, suspension)
AUC [1]: 0.94
IC50 [1]: > 10.2 µM
AUC [2]: 0.906
IC50 [2]: 9.77 µM
AUC [3]: 0.977
IC50 [3]: > 1.02 µM
AUC [4]: 0.852
IC50 [4]: 6.03 µM
AUC [5]: 0.627
IC50 [5]: 2.1 µM

CGTH-W-1 (thyroid, adherent)
AUC [1]: 0.969
IC50 [1]: > 10.2 µM
AUC [2]: 0.843
IC50 [2]: 7.01 µM
AUC [3]: 0.985
IC50 [3]: > 1.02 µM
AUC [4]: 0.817
IC50 [4]: 5.68 µM
AUC [5]: 0.684
IC50 [5]: 3.25 µM

CHP-126 (neuroblastoma, suspension)
AUC [1]: 0.835
IC50 [1]: 6.98 µM
AUC [2]: 0.971
IC50 [2]: > 10 µM
AUC [3]: 0.985
IC50 [3]: > 1.02 µM
AUC [4]: 0.88
IC50 [4]: > 10.2 µM
AUC [5]: 0.914
IC50 [5]: > 16 µM

CL-11 (large intestine, adherent)
AUC [1]: 0.982
IC50 [1]: > 10.2 µM
AUC [2]: 0.858
IC50 [2]: 9.9 µM
AUC [3]: 0.987
IC50 [3]: > 1.02 µM
AUC [4]: 0.96
IC50 [4]: > 10.2 µM
AUC [5]: 0.977
IC50 [5]: > 16 µM

CMK (acute myeloid leukaemia, suspension)
AUC [1]: 0.929
IC50 [1]: > 10.2 µM
AUC [2]: 0.76
IC50 [2]: 3.03 µM
AUC [3]: 0.991
IC50 [3]: > 1.02 µM
AUC [4]: 0.575
IC50 [4]: 0.99 µM
AUC [5]: 0.241
IC50 [5]: 0.208 µM

COLO-320-HSR (large intestine, suspension)
AUC [1]: 0.912
IC50 [1]: > 10.2 µM
AUC [2]: 0.976
IC50 [2]: > 10 µM
AUC [3]: 0.992
IC50 [3]: > 1.02 µM
AUC [4]: 0.818
IC50 [4]: 4.81 µM
AUC [5]: 0.829
IC50 [5]: 8.21 µM

COLO-668 (small cell lung carcinoma, adherent)
AUC [1]: 0.939
IC50 [1]: > 10.2 µM
AUC [2]: 0.969
IC50 [2]: > 10 µM
AUC [3]: 0.988
IC50 [3]: > 1.02 µM
AUC [4]: 0.899
IC50 [4]: > 10.2 µM
AUC [5]: 0.692
IC50 [5]: 3.46 µM

COLO-684 (endometrium, suspension)
AUC [1]: 0.968
IC50 [1]: > 10.2 µM
AUC [2]: 0.878
IC50 [2]: > 10 µM
AUC [3]: 0.971
IC50 [3]: > 1.02 µM
AUC [4]: 0.82
IC50 [4]: 6.82 µM
AUC [5]: 0.612
IC50 [5]: 2.12 µM
